Measurements: ChEMBL document CHEMBL1201862, “PubChem BioAssay data set” (2004)
Where a name gives a salt, the structure may show the parent alone. Active and inactive are the calls of the source. No stated cut-off is given here; in the data, actives have a measured EC50 and inactives only a lower limit.

Test: cytotoxicity in HPDE-C7 cells, cell-based, fluorescence, HTS (AID 430)
Type: functional
Details: Homo sapiens

Structure (SMILES): CCCCc1oc2ccccc2c1C(=O)c1cc(I)c(OCCN(CC)CC)c(I)c1 [AMIODARONE HYDROCHLORIDE]
- EC50: active: 6.53 µM
